Data reported in the supplement of paper PMC4166925.
± gives the standard deviation of the averaged measurements. Over roughly 33,000 sequences, “E-score (dimensionless, -0.5 to 0.5)” has its median near -0.049; the highest 2% begin near 0.37. The list shows a part of the results.

Test system: T1, PmTbr T-box DNA-binding domain (GST fusion)
T1 sequence: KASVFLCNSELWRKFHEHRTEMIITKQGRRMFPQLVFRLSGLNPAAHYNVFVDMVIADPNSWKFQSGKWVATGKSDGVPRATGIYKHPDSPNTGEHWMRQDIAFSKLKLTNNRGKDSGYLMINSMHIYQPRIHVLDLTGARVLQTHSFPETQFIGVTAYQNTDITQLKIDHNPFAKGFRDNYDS
Assay: PBM E-score of 8-mer (E-score (dimensionless, -0.5 to 0.5)); Tbr is Tbrain of the sea star Patiria miniata (Pm) or the sea urchin Strongylocentrotus purpuratus (Sp); higher = stronger binding preference; most listed sequences are background and not binding sites
Settings: the construct has about 5 more residues each side
In short: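 GST-fused Tbr T-box DNA-binding domains (the whole T-box plus about five flanking residues) were expressed in BL21 E. coli at 20 °C and purified by glutathione affinity chromatography. Universal Agilent oligonucleotide arrays were made double-stranded by primer extension, incubated with 200 nM protein in PBS (pH 7.5), then scanned and quantified. Every ungapped 8-mer was scored from probe intensities. The Universal PBM Analysis Suite gave each word an enrichment E-score, averaged over duplicate arrays.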

Sequence | PBM E-score of 8-mer
GTGTTAGA | 0.419 ± 0.0094
AGGAGTCG | 0.0886 ± 0.023
ATGCCAAC | 0.0888 ± 0.00082
CAACGATA | -5e-05 ± 0.011
AAATCTAG | -0.091 ± 0.019
CAGCACAG | -0.0973 ± 0.029
AGATCCGC | -0.0397 ± 0.13
ATTAGTGC | 0.18 ± 0.041
TCAGGCGA | 0.128 ± 0.0029
GCTGGCAA | 0.0997 ± 0.018
CACAGCGG | 0.184 ± 0.0041
AATAGGGA | -0.0296 ± 0.086
GAACAATA | -0.139 ± 0.042
CAGAAGAG | -0.173 ± 0.051
ATTCCGTG | -0.106 ± 0.03
ACTATCTA | 0.104 ± 0.0045
AAATTTGT | 0.087 ± 0.045
AGGAAGAT | -0.137 ± 0.069
GAGAAGAC | -0.0151 ± 0.023
CCGTCGCG | 0.106 ± 0.099
GGTGTTTA | 0.399 ± 0.015
GAGCAAGA | -0.253 ± 0.034

Sequence | PBM E-score of 8-mer
CAGCCTCG | -0.19 ± 0.035
CCGAGAGG | 0.00471 ± 0.011
GTTCGGGA | -0.192 ± 0.024
CCTGCCCG | -0.0748 ± 0.091
AGAATGTG | 0.314 ± 0.042
GTGAGATA | 0.317 ± 0.015
ATCCGAGC | -0.172 ± 0.055
CCACGAAG | -0.0956 ± 0.0077
CTTTACCA | -0.0205 ± 0.071
CCGTGCCG | 0.02971 ± 9.2e-05
AGACTAAA | -0.0678 ± 0.053
CACGCCAG | 0.207 ± 0.033
CGTACAAA | -0.15 ± 0.024
AGTCGCAG | 0.0399 ± 0.06
TCCTACAA | -0.231 ± 0.04
GGTTGGAA | -0.0253 ± 0.034
ACCAGGCT | -0.018 ± 0.016
GCCCCGTA | -0.0249 ± 0.0021
GGCCACTA | -0.146 ± 0.012
CAACCCAA | -0.139 ± 0.029
TGCCCACA | -0.0968 ± 0.015
ATGAGTAG | -0.0171 ± 0.034

Sequence | PBM E-score of 8-mer
CGAGACAG | -0.0127 ± 0.069
ACGTTGTC | 0.135 ± 0.013
GCCCTAGA | -0.11 ± 0.022
CATGAGCG | 0.0193 ± 0.096
GACCTATC | -0.0538 ± 0.05
AATAAACT | -0.157 ± 0.12
GAAAGTTA | -0.053 ± 0.074
AAGCACGC | -0.113 ± 0.015
ATGGTCCG | -0.0567 ± 0.063
CCCCCCGA | -0.2442 ± 1.4e-05
GTCCTGCA | -0.173 ± 0.012
ACATTTCG | 0.0484 ± 0.0049
CAAGAAAC | -0.223 ± 0.047
CGGTGTTA | 0.37 ± 0.0083
ATGCGGGC | -0.315 ± 0.036
ACATCAGT | 0.0692 ± 0.042
ATGCACGC | -0.171 ± 0.14
CGTACAAC | -0.00585 ± 0.067
GATCGCCC | -0.0613 ± 0.016
ACTAGGTC | -0.143 ± 0.0081
TCTTATCA | -0.0374 ± 0.16
CGATTTAC | 0.143 ± 0.051

Sequence | PBM E-score of 8-mer
AATGTTTA | -0.1421 ± 0.0011
ATTACCCA | -0.183 ± 0.11
CGACGGCC | -0.169 ± 0.035
ACGAGCCG | -0.0699 ± 0.13
ACAAGCTA | -0.0967 ± 0.014
TGAATTAA | -0.157 ± 0.12
AGATTGGG | -0.299 ± 0.04
CCTTCACC | 0.0909 ± 0.047
ACGGGGTG | 0.313 ± 0.01
AGGAATTC | -0.282 ± 0.041
AAAACGCT | -0.182 ± 0.034
CAACTATA | -0.125 ± 0.023
ACCGTCCA | -0.243 ± 0.045
CACCGCGA | 0.211 ± 0.016
ATGCAGCA | -0.1 ± 0.0058
CAACGGTG | 0.176 ± 0.058
AAAATTTC | -0.126 ± 0.1
ACGTCAAT | 0.0492 ± 0.055
AACGGTCG | -0.112 ± 0.041
CCTCGGCG | -0.188 ± 0.042
AGGAGCCC | -0.363 ± 0.032
AAGTCGAC | 0.16 ± 0.026

Sequence | PBM E-score of 8-mer
TGGGCTAA | -0.121 ± 0.0082
AAAAAAAG | -0.11 ± 0.085
AAAACACA | 0.154 ± 0.065
CCTCAGTC | -0.0578 ± 0.014
AAATGCTC | -0.031 ± 0.035
CTTCTTAA | -0.116 ± 0.058
AGGGCGCG | 0.304 ± 0.0072
AGCAATTC | 0.0904 ± 0.015
GATGAAAA | 0.111 ± 0.0026
CTTCAACA | 0.0811 ± 0.14
CGCCCGAA | 0.0189 ± 0.025
AAACTCAG | -0.214 ± 0.023
CCACCATC | 0.0197 ± 0.0012
ATTCCATA | -0.142 ± 0.025
GGAGAAAC | -0.02 ± 0.066
TCACCGGA | -0.269 ± 0.012
CCCCACAC | 0.285 ± 0.0031
CCCCTTTC | -0.124 ± 0.061
CGCGGCGC | 0.154 ± 0.0014
ACATAGAT | -0.0623 ± 0.015
CAAGAGAC | -0.0802 ± 0.042
